Reference: PubChem BioAssay AID1671189 (National Center for Advancing Translational Sciences (NCATS), 2021)
Several values for one entry are separate records, joined by “and”; a condition that tells them apart may be missing. Identical values can stand only once. Hit rate of the full screen: of about 1,100 compounds, about 70 (6%) were called active. The shares of active, inactive and inconclusive entries below differ from those in the screen. Calls follow the shape of the dose curve; as a rule, active = well fitted curve in the direction sought with a large enough effect; inconclusive = small, poorly fitted or top-dose-only effect, or another doubt; inactive = no such curve, though single readings can be large or run the other way. Potencies of inconclusive entries are doubtful fits and often do not repeat.

The molecules below were run against Polyunsaturated fatty acid lipoxygenase ALOX12 (Homo sapiens) (UniProt P18054) (assay: Confirmatory qHTS assay for inhibitors of human arachidonate 12S-lipoxygenase (ALOX12): Round 2). Details: purified human 12-LOX, xylenol orange absorbance; activity change, negative = inhibition: at 125 µM (top of the series).
How it was run: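 Purified human enzyme (150 nM) in 25 mM Hepes, 0.01% Triton X-100, pH 7.0, preincubated 15 min with compound, then 40 uM arachidonic acid for 30 min at room temperature. Hydroperoxide detected by Fe-XO, read as 573/405 nm absorbance ratio.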
% is scaled to controls: 0 for no effect and ±100 for the full control effect; potency is read from the fitted curve at half-maximal effect.

Chain of UniProt P18054 (P18054 whole entry, looked up): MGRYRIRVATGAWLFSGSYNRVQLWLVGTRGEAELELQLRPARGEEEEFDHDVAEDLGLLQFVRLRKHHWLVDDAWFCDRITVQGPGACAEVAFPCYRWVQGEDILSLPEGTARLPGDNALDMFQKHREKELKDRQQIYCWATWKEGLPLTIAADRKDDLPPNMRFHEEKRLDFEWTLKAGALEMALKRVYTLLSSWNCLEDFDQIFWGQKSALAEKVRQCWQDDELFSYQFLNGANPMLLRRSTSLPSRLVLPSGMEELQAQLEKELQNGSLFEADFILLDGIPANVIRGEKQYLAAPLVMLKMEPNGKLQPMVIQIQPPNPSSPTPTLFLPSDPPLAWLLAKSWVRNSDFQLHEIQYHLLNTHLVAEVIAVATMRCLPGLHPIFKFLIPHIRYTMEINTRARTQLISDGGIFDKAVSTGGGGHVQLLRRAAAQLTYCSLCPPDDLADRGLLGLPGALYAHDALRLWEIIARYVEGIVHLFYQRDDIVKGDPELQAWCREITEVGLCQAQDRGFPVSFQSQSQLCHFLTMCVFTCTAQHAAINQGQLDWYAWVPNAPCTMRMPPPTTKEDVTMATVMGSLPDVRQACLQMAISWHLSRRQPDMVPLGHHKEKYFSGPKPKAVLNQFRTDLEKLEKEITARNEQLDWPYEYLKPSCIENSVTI

Potency, inactive:
COc1ccc(CN2Cc3[nH]cnc3C[C@H]2C(=O)NCc2ccco2)cc1, C#CCN(C)C(=O)[C@@H]1CCCN1[C@H](CC(C)C)C(=O)NC, CC(=O)N1CCN(C(=O)CSCC(=O)O)C[C@H]1C(=O)N[C@H]1CCCNC1=O, O=C1NCc2ccccc2CC12CCN(Cc1ccc(F)c(Cl)c1)CC2, CC(=O)NC1CC2(CCN(C(=O)Cc3c(C)noc3C)CC2)Oc2ccccc21 (stereo unspecified), CCNC(=O)N[C@@H]1C=C[C@@H](c2c(C)nn(-c3ccc(OC)cc3)c2C)C1

Potency, active:
COc1ccccc1CNC(=O)Nc1cccs1 21.7 µM, O=C(c1ccc(Cl)cc1)N1CC2(CCCN(Cc3ccc(Cl)cc3)C2)Cc2ccccc21 (stereo unspecified) 4.94 µM, NC(=O)c1cccc(CN2CCC3(CC2)Cc2ccccc2N(C(=O)c2ccc(Cl)cc2)C3)c1 22.1 µM, O=C(Nc1ccc(Oc2ccccc2)cc1)O[C@@H]1CO[C@H]2[C@@H]1OC[C@@H]2NS(=O)(=O)c1ccc(Cl)cc1 5.01 µM

Potency, inconclusive:
Cc1cc(C)c2c(=O)n(CC(=O)Nc3cccc(Cl)c3C)sc2n1 6.21 µM [inhibitor, full curve], C/C(=C\c1ccccc1)CN1CCC2(Cc3ccccc3CNC2=O)C1 (stereo unspecified) 61.5 µM [inhibitor, partial curve], CCN1CCC(c2nc3ccc(C)cc3c(=O)[nH]2)CC1 4.52 µM [inhibitor, full curve], O=C1NCc2ccccc2CC12CCN(Cc1cccc3ccccc13)C2 (stereo unspecified) 62.2 µM [inhibitor, partial curve], O=c1[nH]c(C2CCCN(Cc3cccc(-c4cccs4)c3)C2)nc2ccc(F)cc12 (stereo unspecified) 24.8 µM [inhibitor, full curve, poor fit], COc1ccc(-c2nc(C3CC3)nc3c2CN(C(=O)c2ccccc2F)CC3)cc1 62.2 µM [inhibitor, partial curve], C[S+](=O)([O-])N1CC2(CCN(Cc3ccc(Cl)cc3)C2)Cc2ccccc21 (stereo unspecified) 30.8 µM [inhibitor, partial curve], Cc1ccccc1CC(=O)N1CCC2(CC1)NC(=O)N(c1ccccc1)N2 3.98 µM [inhibitor, full curve], Fc1ccc(CN2CC(Oc3ccc4c(c3)OCO4)C2)cc1 61.5 µM [inhibitor, partial curve], CC(=O)NC(c1ccco1)c1cc(Cl)c2ccccc2c1O (stereo unspecified) 12.2 µM [inhibitor, partial curve], Cc1ccc(CSc2ncn(-c3ccccc3)n2)cc1 24.3 µM [inhibitor, partial curve], COc1cccc([S+](=O)([O-])N2CCn3c(nn(-c4cccc(Cl)c4)c3=O)C2)c1 13.9 µM [inhibitor, full curve, poor fit], Clc1ccc(-c2cnc([C@@H]3COCCN3Cc3ccccc3)[nH]2)cc1 44.7 µM [inhibitor, partial curve], CC(C)c1nc2c(c(-c3ccc(Cl)cc3)n1)CCN(CC1CCCCC1)CC2 11.1 µM [inhibitor, full curve, poor fit], Cc1ccc(-c2cccc(CN3CCCC(c4nc5ccc(C)cc5c(=O)[nH]4)C3)c2)c(C)c1 (stereo unspecified) 49.4 µM [inhibitor, partial curve, poor fit], CC(C)(C)OC(=O)N1CC(Nc2ccc(O)cc2)C1 1.8 µM [inhibitor, full curve] and 2.54 µM [inhibitor, full curve], COc1ccc(N2CC3CCC(C2)N3Cc2cccc(-c3ccc(F)cc3F)c2)cc1 139 µM [inhibitor, single point], O=[S+]([O-])(Nc1ccc(N2CCNCC2)cc1)c1ccc(NCc2cccc(Cl)c2O)cc1 24.3 µM [inhibitor, partial curve], O=c1[nH]c(C2CCCN(Cc3cccc(Cl)c3)C2)nc2ccc(F)cc12 (stereo unspecified) 17.5 µM [inhibitor, partial curve], CC(C)(C)OC(=O)N1CC(Nc2cccc(Oc3ccccc3)c2)C1 24.5 µM [inhibitor, partial curve, poor fit], CCN1CCC(c2nc3ccc(F)cc3c(=O)[nH]2)CC1 90.3 µM [inhibitor, partial curve], COc1ccc(OC)c([S+](=O)([O-])c2nnn3c2nc(NCc2ccc(F)cc2)c2ccccc23)c1 62.2 µM [inhibitor, partial curve, poor fit], O=C1NCc2ccccc2CC12CCN(Cc1ccc(F)cc1)C2 (stereo unspecified) 61.5 µM [inhibitor, partial curve, poor fit], O=C(O)CCC(=O)N1Cc2ccccc2CC2(CCN(CC3CCNC3)C2)C1 (stereo unspecified) 55.5 µM [inhibitor, partial curve], O=[S+]([O-])(Nc1ccc(C2CCNCC2)cc1)c1ccc(NCc2ccc(Cl)cc2O)cc1 24.3 µM [inhibitor, partial curve], O=C(OCC#CCSc1nnc(-c2cccc3ccccc23)o1)c1cccc(F)c1 12.2 µM [inhibitor, partial curve], O=C1NCc2ccccc2CC12CCN(Cc1ccc(-c3ccccc3)cc1)CC2 55.5 µM [inhibitor, single point], N#Cc1nc(-c2cccc3ccccc23)oc1Nc1ccccc1 9.68 µM [inhibitor, partial curve, poor fit], O=C1NCc2ccccc2CC12CCCN(Cc1ccc(Cl)cc1)C2 (stereo unspecified) 31.2 µM [inhibitor, partial curve], CNc1nc2c(s1)C(c1ccc(F)c(F)c1)CC(=O)N2 (stereo unspecified) 5.01 µM [inhibitor, full curve], c1ccc(CN2CC(Oc3ccc4c(c3)OCO4)C2)cc1 56.9 µM [inhibitor, partial curve], Cc1ccc(C(=O)N2CCC3(CC2)NC(=O)N(c2ccccc2)N3)cc1 3.98 µM [inhibitor, full curve], O=C(c1ccccc1F)N1CCc2nc(C3CC3)nc(-c3ccc(Cl)cc3)c2C1 55.5 µM [inhibitor, partial curve], CCN1CCCCC12Cc1ccccc1CN(C(=O)C1CCN(C)CC1)C2 (stereo unspecified) 8.79 µM [inhibitor, full curve], COc1ccc(N2CC3CCC(C2)N3Cc2ccc(-c3cccnc3)cc2)cc1 98.7 µM [inhibitor, partial curve, poor fit], COc1ccc(CN2CCC3(C2)C(=O)Nc2ccccc23)cc1 (stereo unspecified) 69 µM [inhibitor, partial curve], Cc1noc(C)c1C(=O)N1Cc2ccccc2CC2(CCN(C)C2)C1 (stereo unspecified) 27.5 µM [inhibitor, partial curve], Cn1nc(C2CCNC2)c2c(C(=O)NCc3ccc(F)cc3)cc(C3CC3)nc21 (stereo unspecified) 62.2 µM [inhibitor, partial curve, poor fit], O=C(NC1CCCC1)c1cc(C2CC2)nc2onc(C3CCNCC3)c12 24.8 µM [inhibitor, partial curve, poor fit], Cc1cc(C(=O)NCC(F)(F)F)c2c(C3CCCN3)noc2n1 (stereo unspecified) 86.9 µM [inhibitor, partial curve, poor fit], COc1ccc(-c2cc(C[C@H]3CNCC[C@H]3CC(=O)N3CCC(n4c(=O)[nH]c5ccccc54)CC3)no2)cc1 44.7 µM [inhibitor, partial curve, poor fit], O=C1NCc2ccccc2CC12CCCN(Cc1ccc(F)c(Cl)c1)C2 (stereo unspecified) 44.1 µM [inhibitor, partial curve, poor fit], O=C1NCc2ccccc2CC12CCN(Cc1ccc(Cl)s1)C2 (stereo unspecified) 55.5 µM [inhibitor, partial curve], COc1ccc(C(=O)N2CCc3nc(C4CC4)nc(-c4ccc(OC)cc4)c3C2)cc1 49.4 µM [inhibitor, partial curve], CCC(=O)N1Cc2ccccc2CC2(CCN(CCc3ccc(C)cc3)CC2)C1 13.9 µM [inhibitor, partial curve], COc1cc(CN2CCC(C)(NC(C)=O)CC2)cc(-c2ccccc2)c1 15.8 µM [inhibitor, full curve], CC(C)Cc1ccc(CN2CCC3(Cc4ccccc4CNC3=O)C2)cc1 (stereo unspecified) 55.5 µM [inhibitor, partial curve], CCc1ccc(CN2CCCCC23Cc2ccccc2CNC3=O)cc1 (stereo unspecified) 69.8 µM [inhibitor, partial curve], COc1ccc(NC(=O)N2C[C@@H]3C[C@H](C2)c2ccc(NC(=O)Nc4ccccc4OC)c(=O)n2C3)cc1 15.8 µM [inhibitor, full curve], CCc1ccc(CN2CCC3(Cc4ccccc4CNC3=O)C2)cc1 (stereo unspecified) 69 µM [inhibitor, partial curve], COc1ccc(CN2CCCC3(Cc4ccccc4CNC3=O)C2)cc1 (stereo unspecified) 77.5 µM [inhibitor, partial curve, poor fit], CCOc1cccc(CN2CCCC23Cc2ccccc2CNC3=O)c1 (stereo unspecified) 69.8 µM [inhibitor, partial curve], O=C(c1ccc2c(c1)OCO2)N1CCn2c(nnc2C2CCNCC2)C1 111 µM [inhibitor, single point]

Activity change, negative = inhibition, inconclusive:
O=C(NC1CCCCC1)N1CCC(c2nnc3n2CCNC3)CC1 -32.8% [inhibitor], O=C1NC(=NC2CCCCC2)C2(CCCN(Cc3ccccc3)C2)N1c1cc(F)cc(F)c1 (stereo unspecified) -35.8% [inhibitor], COCCNC(=O)c1cc(-c2ccc(OC)cc2)nc2onc(C3CCNC3)c12 (stereo unspecified) -35.8% [inhibitor]
